The other results are listed elsewhere or left out.

The assay addresses T1, OsWOX13 (Oryza sativa, UniProt Q5QMM3 1-267).
T1 sequence: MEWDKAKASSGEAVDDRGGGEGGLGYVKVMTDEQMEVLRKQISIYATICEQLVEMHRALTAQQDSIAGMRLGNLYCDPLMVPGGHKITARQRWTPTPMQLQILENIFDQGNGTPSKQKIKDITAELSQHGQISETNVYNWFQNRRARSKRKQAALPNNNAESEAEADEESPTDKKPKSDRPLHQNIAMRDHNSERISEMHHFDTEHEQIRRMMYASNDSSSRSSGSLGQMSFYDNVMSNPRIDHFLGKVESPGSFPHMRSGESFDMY
In words: protein-binding microarray (RPBM); PBS, 2% BSA, 51.3 ng/ul salmon testes DNA, 50 uM zinc acetate, 200 nM TF, 25 C, 1 h; high values mean tight binding. To be noted: protein: recombinant; tags: N-terminal polyhistidine and DsRed monomer fusion (pET32a); label: CyDye5-dUTP incorporated in the synthesized complementary strand; 3' TTTTT single-stranded linker to array surface; dsDNA, one strand shown. In short, it runs like this:
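Binding signal is defined as the fluorescence intensity of each feature in arbitrary units, read on an Axon 4000B scanner. Transcription factors with N-terminal polyhistidine and DsRed fusions came from E. coli BL21-CodonPlus and were purified on Ni–NTA. They were incubated at 200 nM for 1 h at 25 °C on a custom Agilent array that had been made double-stranded with Cy5-dUTP, with 50 µM zinc acetate present, and the array was washed.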
In the case of “ATGTGATTCGAATTTTAGATCTGCAATGTATTTGGATAAGCGGAGTCACCTAGTGCAG”, the binding signal was 3330 fluorescence intensity (a.u.). “TCAATTAGATAGATTAATATGTTATAGATCATTCTACAAACGGAGTCACCTAGTGCAG”: the binding signal was 21900 fluorescence intensity (a.u.). With “ATGATTTCTTGATCTGGAAGCTTGCGCGATCTCACAATCCCGGAGTCACCTAGTGCAG”, the binding signal is 3270 fluorescence intensity (a.u.). With “TATAAATAGCCTATGATTTGGCTAAGGTGGTCCGAACTCCCGGAGTCACCTAGTGCAG”, the binding signal is 5650 fluorescence intensity (a.u.). In the case of “AGAGTTTGATGGATTAGTCTTTGTGCTTCAGTATTTCCACCGGAGTCACCTAGTGCAG”, the binding signal is 12800 fluorescence intensity (a.u.).

For “ATGGGTAGGAGGGTTATTAATTGATGATGTGGTTTGGTTACGGAGTCACCTAGTGCAG”, the binding signal is 10900 fluorescence intensity (a.u.). The figure for “GATTAATCATGTCACATCAGGAAGATTCATCAGTTGATCACGGAGTCACCTAGTGCAG” is 8550 fluorescence intensity (a.u.); for “ATTCCAAATTTCCGGTAATTTTGGTCCCATCGGTAAGCACCGGAGTCACCTAGTGCAG” it is 10400 fluorescence intensity (a.u.). For “GGATAATTGTGTACATCAGTTTGGTATGACCTCTATGCACCGGAGTCACCTAGTGCAG”, the binding signal is 37000 fluorescence intensity (a.u.). Take “ATAATATGATGAAATTTACCGAGCAACAAACTTTGTTAATCGGAGTCACCTAGTGCAG”: the binding signal was 3380 fluorescence intensity (a.u.).

Consider “TTTGAATTTTCATCTATAATTAAATTAAGAAAACAATATGCGGAGTCACCTAGTGCAG”, for which the binding signal was 3570 fluorescence intensity (a.u.). As for “AGTACAATTGGATGCAATTTATCTTTCTGTAGAAGCGATACGGAGTCACCTAGTGCAG”, the binding signal was 3300 fluorescence intensity (a.u.). For the sequence “GTTGATGATGTGGCTTCTTGCTTGTCTTGCTTTATAGGAGCGGAGTCACCTAGTGCAG”, the binding signal was 5720 fluorescence intensity (a.u.). Then “TGTGATTTGCACCGCATACTTTCCCCGACAATAGATCATCCGGAGTCACCTAGTGCAG”, with 10800 fluorescence intensity (a.u.); and “TTTGACTGTATTACAGTGAAATACTGGAGAAATCTGGGAGCGGAGTCACCTAGTGCAG”, with 9340 fluorescence intensity (a.u.); and “CATGATGTTATACAGTTCCTTAATTGGCACCCCTCCTAAACGGAGTCACCTAGTGCAG”, with 25400 fluorescence intensity (a.u.). On to “AATCAATCAATCAATCAATCCCTCCCATTGCTTCACATTTCGGAGTCACCTAGTGCAG”, for which the binding signal is 50200 fluorescence intensity (a.u.). Take “TTCATGCTTAATTTGCTTCCTTTCTTCCAACAATGGACATCGGAGTCACCTAGTGCAG”: the binding signal is 4470 fluorescence intensity (a.u.). In the case of “GGTCTATTTATGATTGCTGTGAAGCAAAATCCTTGCTTGGCGGAGTCACCTAGTGCAG”, the binding signal was 18200 fluorescence intensity (a.u.). Turning to “TGAGTAATTGATAGTGACACGGCTATCCAACCAATCCAGGCGGAGTCACCTAGTGCAG”, the binding signal was 65100 fluorescence intensity (a.u.). Consider “CGAATTGCAAATTATTTAACATCTCAGTCATGATATTGCCCGGAGTCACCTAGTGCAG”, for which the binding signal was 9400 fluorescence intensity (a.u.). Regarding “ACGTGGGTGATTGCTCCTGCCCAAACCTCTAGTCATGATACGGAGTCACCTAGTGCAG”, the binding signal is 10100 fluorescence intensity (a.u.). As to “GCGATTTGATGAATGGCTTTCTTCAAGTTCATATCATTCGCGGAGTCACCTAGTGCAG”, the binding signal was 3390 fluorescence intensity (a.u.). Then “AATTAGTTTAATTGGTTAGATCCATTGCAAATTGATACATCGGAGTCACCTAGTGCAG”, with 19900 fluorescence intensity (a.u.); and “AATCATATAGACTTATATAATTATGGGTACTCCCTCCGTCCGGAGTCACCTAGTGCAG”, with 3700 fluorescence intensity (a.u.). As to “ATATTTGATTGGTTTGGTGTCACTAAAATTTTAAAACTTACGGAGTCACCTAGTGCAG”, the binding signal is 22900 fluorescence intensity (a.u.). For “GATGGAATTGACAAATTTCCACAAGAGTTAATGGAGTGCACGGAGTCACCTAGTGCAG”, the binding signal is 30900 fluorescence intensity (a.u.).

As to “CTGTCAATCTGCATATATCTGTCTCTCTTACTCACTAACACGGAGTCACCTAGTGCAG”, the binding signal is 8750 fluorescence intensity (a.u.). Then “ACAGAAATTTTATTAGACAAATCAAAATGGAGTTGAACAGCGGAGTCACCTAGTGCAG”, with 4600 fluorescence intensity (a.u.); and “CGTTTTAAATTAGGAACTTAGCCATCAAATAATCCAATTTCGGAGTCACCTAGTGCAG”, with 7000 fluorescence intensity (a.u.); and “ATAGATTTTATTTCCATAATGGTTTAGGATTGGGTAATTTCGGAGTCACCTAGTGCAG”, with 4860 fluorescence intensity (a.u.). The figure for “AGGGAAGACAAATTTAAATTAAATGAAATTCGGAGGCACACGGAGTCACCTAGTGCAG” is 14600 fluorescence intensity (a.u.); for “TAATAATTAGTGATTAATTATCCTGACCATTGATTCAACACGGAGTCACCTAGTGCAG” it is 48300 fluorescence intensity (a.u.); for “TCTGATTGGATTCACCAAACTGCTTCTTCACGGTAAGACGCGGAGTCACCTAGTGCAG” it is 33800 fluorescence intensity (a.u.). The figure for “TTAATTATTGTAAATGCCTAATTGACTGACCACCAGAAGCCGGAGTCACCTAGTGCAG” is 28900 fluorescence intensity (a.u.). Turning to “GCTCGATTGGATAATTCTTCTGCATAACTAGCCAGTGGAGCGGAGTCACCTAGTGCAG”, the binding signal was 26800 fluorescence intensity (a.u.). In the case of “TGCGACTTTGTTTTATCAATTTAAAATTTGAATTTCAAAACGGAGTCACCTAGTGCAG”, the binding signal was 3830 fluorescence intensity (a.u.). Regarding “ACGTGATGATACACACATAATCGAATCGAATCGATAGATGCGGAGTCACCTAGTGCAG”, the binding signal is 3300 fluorescence intensity (a.u.). As to “ACTAGATTATCCTTTATTATTGGCAGTATCCAGATAAATACGGAGTCACCTAGTGCAG”, the binding signal was 6700 fluorescence intensity (a.u.). As to “GCAATCAATATGGTGATTAGAGTAGTCAAATCAAATGGCACGGAGTCACCTAGTGCAG”, the binding signal is 28000 fluorescence intensity (a.u.). Regarding “TCAAATTTTAAACAAAATTTTCAACTAAAATATGTATCTACGGAGTCACCTAGTGCAG”, the binding signal is 7090 fluorescence intensity (a.u.). Turning to “CATTTGATTTTCGGTCTGATTTTGTTATTTCACTGGCAATCGGAGTCACCTAGTGCAG”, the binding signal is 24300 fluorescence intensity (a.u.).
